Measured values reported in the supplement of paper PMC11876631.
Residue numbers refer to the chain shown, from its start. Numbers in names are those of the source. ± gives the standard deviation of the averaged measurements. Laboratory Escherichia coli strains with one amino-acid change in an essential protein, pooled on minimal glucose agar with carbenicillin or gentamicin at twice the control MIC (plus kanamycin and chloramphenicol for the plasmids), 48 h. Fold change of barcode share against drug-free plates; higher = less susceptible. Active = above 20 in both replicates (the paper's putatively resistant). '<' = one read or none on drug, '>' = one read or none on a drug-free plate. Shares are relative, so most strains fall below 1 when a few take over. Listed are strains with at least 15 reads on both drug-free plates, and hits; most hits rest on fewer reference reads. Replicate rank correlation about 0.5. Edits are read from barcodes.

B1: lpxD V178A (protein)
chain: MPSIRLADLAQQLDAELHGDGDIVITGVASMQSAQTGHITFMVNPKYREHLGLCQASAVVMTQDDLPFAKSAALVVKNPYLTYARMAQILDTTPQPAQNIAPSAVIDATAKLGNNVSIGANAVIESGVELGDNVIIGAGCFVGKNSKIGAGSRLWANVTIYHEIQIGQNCLIQSGTVAGADGFGYANDRGNWVKIPQIGRVIIGDRVEIGACTTIDRGALDDTIIGNGVIIDNQCQIAHNVVIGDNTAVAGGVIMAGSLKIGRYCMIGGASVINGHMEICDKVTVTGMGMVMRPITEPGVYSSGIPLQPNKVWRKTAALVMNIDDMSKRLKSLERKVNQQD
B2: aroD L158A (protein)
chain: MKTVTVKDLVIGTGAPKIIVSLMAKDIASVKSEALAYREADFDILEWRVDHYADLSNVESVMAAAKILRETMPEKPLLFTFRSAKEGGEQAISTEAYIALNRAAIDSGLVDMIDLELFTGDDQVKETVAYAHAHDVKVVMSNHDFHKTPEAEEIIARARKMQSFDADIPKIALMPQSTSDVLTLLAATLEMQEQYADRPIITMSMAKTGVISRLAGEVFGSAATFGAVKKASAPGQISVNDLRTVLTILHQA
B3: aroD L158W (protein)
chain: B2 chain with A158W
B4: aroD F79A (protein)
chain: B2 chain with F79A, A158L
B5: aroD F79W (protein)
chain: B2 chain with F79W, A158L
B6: aroD F79Q (protein)
chain: B2 chain with F79Q, A158L
B7: aroD L45A (protein)
chain: B2 chain with L45A, A158L
B8: aroD L45W (protein)
chain: B2 chain with L45W, A158L
B9: aroD L45Q (protein)
chain: B2 chain with L45Q, A158L
B10: aroD M203W (protein)
chain: B2 chain with A158L, M203W
B11: aroD M203Q (protein)
chain: B2 chain with A158L, M203Q
B12: metA F140A (protein)
chain: MPIRVPDELPAVNFLREENVFVMTTSRASGQEIRPLKVLILNLMPKKIETENQFLRLLSNSPLQVDIQLLRIDSRESRNTPAEHLNNFYCNFEDIQDQNFDGLIVTGAPLGLVEFNDVAYWPQIKQVLEWSKDHVTSTLAVCWAVQAALNILYGIPKQTRTEKLSGVYEHHILHPHALLTRGFDDSFLAPHSRYADFPAALIRDYTDLEILAETEEGDAYLFASKDKRIAFVTGHPEYDAQTLAQEFFRDVEAGLDPDVPYNYFPHNDPQNTPRASWRSHGNLLFTNWLNYYVYQITPYDLRHMNPTLD
B13: metA F140W (protein)
chain: B12 chain with A140W
B14: metA F140Q (protein)
chain: B12 chain with A140Q
B15: metA F140P (protein)
chain: B12 chain with A140P
B16: metA V141A (protein)
chain: B12 chain with A140F, V141A

biological target: Escherichia coli (laboratory strain); test: barcode share on antibiotic plates over drug-free plates; higher = less susceptible; conditions: antibiotic: carbenicillin; 2× MIC (3.1 µg/mL)
Experimental: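 A pool of E. coli strains, each edited to carry one amino-acid change in an essential protein, was grown for 48 h on minimal glucose agar with or without antibiotic; strain barcodes were sequenced; mean of two replicates.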

Protein	fold change of barcode share
B1	0.183 ± 0.056
B2	0.398 ± 0.12
B3	0.347 ± 0.0067
B4	0.41 ± 0.042
B5	0.598 ± 0.086
B6	0.396 ± 0.038
B7	0.326 ± 0.064
B8	0.275 ± 0.12
B9	0.3283 ± 0.00042
B10	0.412 ± 0.12
B11	0.363 ± 0.23
B12	0.439 ± 0.11
B13	1.52 ± 0.22
B14	0.732 ± 0.2
B15	0.626 ± 0.25
B16	0.335 ± 0.096

same assay, conditions: antibiotic: gentamicin; 2× MIC (MIC 0.45 µg/mL)

Protein	fold change of barcode share
B1	< 0.0195
B2	< 0.00529
B3	< 0.008
B4	< 0.0123
B5	0.0693 ± 0.083
B6	< 0.00975
B7	0.00465 ± 0.0006
B8	0.00531 ± 0.0044
B9	< 0.00323
B10	< 0.00889
B11	0.0127 ± 0.0031
B12	0.0145 ± 0.014
B13	0.0276 ± 0.023
B16	< 0.00233
